Here are results for 25 compounds from PubChem BioAssay AID1508624 (National Center for Advancing Translational Sciences (NCATS), 2021).

About 120 (0.25%) of roughly 48,000 compounds were called active. Inconclusive results (about 4%) are left out. Calls come from the whole dose curve; as a rule, active = well fitted activation curve with a large enough effect; inconclusive = small, poorly fitted or top-dose-only effect, or another doubt; inactive = no such curve, though single readings can be large or run the other way. This is one part of the list.

A short description of this assay: Primary qHTS for Identification of Small Molecule Activators of Huntingtin-Antisense Promoter Activity. Note: nearly all actives have a fitted effect of over 55% in size. The following applies: HEK293 HTT-AS promoter firefly luciferase reporter, 24 h; series mostly up to 57.5 µM; activity change, positive = activation: at the top concentration. A digest of the protocol:
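HEK293 luciferase promoter-reporter cells (2,500/well) plated 24 h, then compounds added at up to 57.5 uM final for 24 h at 37 °C. Firefly luminescence by Dual-Glo, normalized to vehicle (0%) and zero RLU (-100%).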
(In qHTS, concentration-response curves come from the screen itself.)
As for `CCc1ccc(S(=O)(=O)c2cn(CC)c3cc(N4CCOCC4)c(F)cc3c2=O)cc1`, the “activity change, positive = activation” value is inactive: -26%.

`CC(=O)c1ccc(NC(=O)Cn2cc3c(n2)CCCC3)cc1`: the “activity change, positive = activation” value is inactive: -12.3%.

With `CCOc1ccc(CN2CCN(c3ncnc4sc5c(c34)CC(C)CC5)CC2)cc1` (stereo not given), the activity change, positive = activation is inactive: -4.59% [at 11.5 µM, percent change from vehicle, -100% = no light].

As to `COc1ccccc1C(=O)Nc1nnc(S(=O)(=O)N(C)c2ccc(Cl)cc2)s1`, the “activity change, positive = activation” value is inactive: 1.96%.

Consider `COc1ccc(Cl)cc1NC(=O)c1ccc2c(c1)CCCN2S(C)(=O)=O`, for which the “activity change, positive = activation” value was inactive: 6.35%.

For `CCOc1ccc2c(c1)c(=O)c(S(=O)(=O)c1ccccc1)cn2CC(=O)Nc1ccccc1OC`, the “activity change, positive = activation” value was inactive: -3.5%.

As to `Cc1ccc(CNC(=O)C2CCN(S(=O)(=O)c3ccc4c(c3)CCCN4C(=O)C3CCC3)CC2)cc1`, the “activity change, positive = activation” value is inactive: -44.5%.

`Cc1nc(-c2ccccc2)sc1CCNS(=O)(=O)c1ccccc1`: the “activity change, positive = activation” value is inactive: -7.87%.

As for `O=C(NCCSc1c(-c2ccccc2)[nH]c2ccccc12)c1ccc(S(=O)(=O)N2CCOCC2)cc1`, the “activity change, positive = activation” value is inactive: -29.3%.

For the compound `COC(=O)c1ccc(NC(=O)CSc2nc(=O)[nH]c3c2CCCC3)cc1`, the “activity change, positive = activation” value was inactive: -11.6%.

Regarding `CCOC(=O)COc1ccc([N+](=O)[O-])cc1-c1ccnc2cc(-c3ccc(Cl)cc3)nn12`, the “activity change, positive = activation” value was inactive: -4.58%.

On to `CCc1ccc(CN(Cc2ccco2)c2cnc(S(C)(=O)=O)nc2C(=O)Nc2cccc(C)c2)cc1`, for which the “activity change, positive = activation” value is inactive: -25.5%.

With `CN(C)c1ccc(C(CNC(=O)c2ccccc2)N2CCc3ccccc32)cc1` (stereo not given), the “activity change, positive = activation” value is inactive: 9.21%.

As to `CCC1=Nc2cc(C(=O)NCCCOC)ccc2Sc2ccc(Br)cc21`, the “activity change, positive = activation” value is inactive: -40.2%.

As to `CC(C)CC(=O)Nc1cccc(-c2nc3ccccc3[nH]2)c1`, the “activity change, positive = activation” value is inactive: 20.3%.

In the case of `Cc1cccc(-c2noc(-c3ccccc3OCC(=O)Nc3ccc([N+](=O)[O-])cc3)n2)c1`, the “activity change, positive = activation” value was inactive: -4.89%.

In the case of `COc1ccccc1CNc1nc(-c2ccco2)nn1S(=O)(=O)c1ccc2ccccc2c1`, the “activity change, positive = activation” value is inactive: -7.86%.

`COCCCNC(=O)c1oc2c(c1C)-c1nn(Cc3ccccc3Cl)cc1CC2`: the “activity change, positive = activation” value was inactive: -35.7%.

For the compound `CNC(=O)C1CCC(Cn2c(=O)c3sccc3n(CC(=O)NCc3ccccc3)c2=O)CC1` (stereo not given), the “activity change, positive = activation” value was inactive: -16.1%.

Consider `Cc1ccccc1C(=O)Nc1sc2c(c1C(=O)NCc1ccco1)CCC(C(C)(C)C)C2` (stereo not given), for which the “activity change, positive = activation” value was inactive: -18.3%.

Consider `Cc1ccc(SCCNC(=O)CN(c2ccccc2)S(=O)(=O)N(C)C)cc1`, for which the “activity change, positive = activation” value was inactive: -16.7%.

Regarding `Cc1ccc(Cl)cc1NC(=O)c1cnc(N2CCCCC2)c2ccccc12`, the “activity change, positive = activation” value was inactive: -20.9%.

As to `O=C(Cn1c(SCC(=O)Nc2ccc(F)cc2)nc2ccccc21)NCc1ccc(F)cc1`, the “activity change, positive = activation” value was inactive: -6.93%.

Consider `N#Cc1ccc(C(=O)Nc2cc3nn(-c4ccccc4)nc3cc2Cl)c(F)c1`, for which the “activity change, positive = activation” value was inactive: 13.4%.

With `CCOC(=O)C1CCN(S(=O)(=O)c2cc(Br)cc3c2N(C(=O)CC)CC3)CC1`, the “activity change, positive = activation” value is inactive: -10.4%.
